Detection in blood data for one molecule are collected here from patent US9243038B2, “Macrocyclic insulin-degrading enzyme (IDE) inhibitors and uses thereof” (President and Fellows of Harvard College, priority 2011, dated 2016).

The nature of the data set: Preliminary pharmacokinetics after i.p. injection (LC-MS quantitation in plasma). Conditions: 30 min after 1 mg/kg injection i.p.

Consider `N=C(N)NCCC[C@H](NC(=O)[C@@H](CC(=O)NO)Cc1ccc2ccccc2c1)C(=O)N[C@@H](Cc1c[nH]c2ccccc12)C(=O)N[C@@H](CCC(=O)O)C(N)=O` [Ii1, reference compound], for which the detection in blood result was “not detected”.
